For 167 variants, self-cleavage results are on record in the RNAGym collection of RNA variant scans (doi:10.7554/elife.90254).

Sequences and labels used below:
B1: LINE1-mini (parent)
chain: GGCAGAGCUCAACACAGCGUGGCAAAGUGGCUGUGGCUAGACUGCC

Read counts are not given, so values of variants with three or more changes are uncertain.

In this series the parent is B1. Put plainly: self-cleavage, relative activity (ratio to wild type); higher = more cleavage; in vitro, sequencing; the parent is a self-cleaving ribozyme.
In the case of C10A G29U A39C C45A, the self-cleavage was found to be 0. The figure for C10G A11G C15G A16G C18G is 0.01; for C10A G21U G29C A41C it is 0; for C10A G36A G40U G44A it is 0.

Take C10A G22A U32C: the self-cleavage is 0.02. Regarding C10G A14G C23U, the self-cleavage was 0.02. Take C10A G19A G36U A41U: the self-cleavage stood at 0.01.

On to C10G C23A A39G C46U, for which the self-cleavage turned out to be 0.03. With C10A G19A U20C G22U, the self-cleavage came to 0.04. Under C10G G17C U34C G40U stands 0.02; under C10A G27C G33C, 0.01. As for C10G C15A G19U G30C C42U, the self-cleavage came to 0. As to C10G A12U G40C, the self-cleavage came to 0.01.

As for C10G A16G A24U G35U, the self-cleavage is 0.02.

Turning to C10G A14G A16G A26C G29U G36U, the self-cleavage came out at 0.01. In the case of C10G C15U G17C G21C G36U C37G C46U, the self-cleavage worked out at 0. As to C10G A14U C18G U20A G22U A26U G30A G44A C45G, the self-cleavage worked out at 0.01.

For the variant C10G C15U A26G C46G, the self-cleavage amounted to 0.02.

Take C10G G17C G29U G36U G40A: the self-cleavage turned out to be 0.01. Regarding C10A G22U U32A, the self-cleavage was determined as 0.02.

As for C10G C15A G35U U43C C46A, the self-cleavage came out at 0.01. As for C10G C18U A25G, the self-cleavage was 0.08. With C10A G30U U38C, the self-cleavage is 0.06. As for C10A U20C G22U, the self-cleavage is 0.01. As to C10G C23G G27A, the self-cleavage worked out at 0.2. Regarding C10G A16U U20G C31A C42G, the self-cleavage turned out to be 0.

In the case of C10A G36C C46A, the self-cleavage turned out to be 0.

For the variant C10A G21U U34A G40C A41C, the self-cleavage amounted to 0.01. In the case of C10A G30U G36C, the self-cleavage was 0. Take C10A G30U G36A: the self-cleavage is 0.03. The figure for C10G A16G C31A G44U is 0.01; for C10A G22A G27U it is 0.04; for C10G A24C G30U U32G G33U it is 0.01. Consider C10A G27U G29U, for which the self-cleavage is 0.05.

For C10A G21A G44C, the self-cleavage is 0.06. The figure for C10G A14U A16U is 0.01. On to C10A U32G U43A, for which the self-cleavage came out at 0.06. Consider C10A G30U G35A U43C, for which the self-cleavage was 0.03.

As to C10G G17U C18G G19A, the self-cleavage was 0.04. The figure for C10A G29U G35C is 0.01; for C10A G27U G29A C37A A39U it is 0.

On to C10A G30A C45G, for which the self-cleavage stood at 0.02.

As to C10G C18A G27U U38C, the self-cleavage worked out at 0.01. On to C10A G22U U32C C45A, for which the self-cleavage was 0. On to C10A G29A G44A, for which the self-cleavage amounted to 0. C10A G29A G44U: the self-cleavage was determined as 0.06. Consider C10G A16U U20G U34A, for which the self-cleavage came to 0.03. Take C10G A11U G27U G30A G35A G36A C46U: the self-cleavage turned out to be 0. As for C10G C15U G19C G30C, the self-cleavage was found to be 0.01. With C10A G22U C23G U34G, the self-cleavage stood at 0.22. Under C10G A11G U20C G44C stands 0.01; under C10G C13G G17C A24U C37G, 0.01. The figure for C10A U20A G21U G36U is 0.01; for C10G C13A U43A it is 0.02; for C10A G19U G36A it is 0.02.

Take C10G A16G G29A C45A: the self-cleavage was 0.06.

With C10G A14U G36C, the self-cleavage was 0.03. On to C10G C23U U34A C46G, for which the self-cleavage was determined as 0.02. Under C10G A16C A24G G40U stands 0.02. In the case of C10G A14U G30U G35U G40U A41U, the self-cleavage amounted to 0. As to C10A G22C U43C G44U, the self-cleavage was found to be 0. Under C10A G19U A25U stands 0.08; under C10G C13G C45A, 0.02. As to C10A G40A A41U, the self-cleavage was 0.01.

With C10G A11U C23A C31G, the self-cleavage stood at 0.01.

C10G C15U G40C C46U: the self-cleavage was 0.05. Under C10A G35U A41U stands 0.07; under C10A G29U G40U, 0.01. Take C10G C13U G22U G35A: the self-cleavage stood at 0.03. Under C10A G22C C31U G44A stands 0.03; under C10A G19C A25C, 0.02; under C10G A16U U34A, 0.02. Turning to C10G C15A G17U, the self-cleavage is 0.01. Take C10A G27A G30A C37A: the self-cleavage is 0.01.

With C10G C13A C15U, the self-cleavage came out at 0.03. Regarding C10G C15A C45G, the self-cleavage was 0.02. As for C10G A14G G36C U43A, the self-cleavage came out at 0.01. As to C10A U32G C45G, the self-cleavage was 0.02.

Consider C10A U32G C45U, for which the self-cleavage was 0.01. Regarding C10G A14C C15U A25U, the self-cleavage is 0. On to C10G A14U C15G G27U, for which the self-cleavage turned out to be 0.02. Under C10G C15U C37A stands 0.03; under C10G C13U G27U G36U G40C C45U, 0; under C10G A14U C15A G27U C42G, 0.02. Under C10A G27U U34A stands 0.56. On to C10A G29U C37A, for which the self-cleavage was 0. C10G A14G G21U: the self-cleavage worked out at 0.05. C10A G22U C37A: the self-cleavage was found to be 0. C10A G29A A39C: the self-cleavage was determined as 0.01. With C10A G44C C45A, the self-cleavage was found to be 0. As to C10A U28G A41U, the self-cleavage was found to be 0.01. As to C10A G22U G29U C42U G44A, the self-cleavage was 0.01. On to C10G C18A C23G, for which the self-cleavage is 0.06. With C10G A26C U32A, the self-cleavage stood at 0.03. Turning to C10G A25C C31A, the self-cleavage is 0.01. Under C10A G30C A39U stands 0.15. In the case of C10G A14G A26U G36C A39C, the self-cleavage is 0.01. For C10A U20C G44C, the self-cleavage is 0.1.

Take C10A U28C C31U G35U G36A: the self-cleavage came out at 0.02. As to C10A G21U U43C, the self-cleavage came out at 0. C10G A12G G27A U32C G44C: the self-cleavage was determined as 0.01.

C10G A25G C31A: the self-cleavage turned out to be 0.05. C10A G22U A25C: the self-cleavage was found to be 0.06. Consider C10G A25G U34C C37G A41C, for which the self-cleavage was 0. Under C10G C23U U43G stands 0.03. For C10G G17A G19C G33U, the self-cleavage is 0.01. Take C10G C13A C15A G17U: the self-cleavage turned out to be 0.01. Consider C10A G22A G44C C45U, for which the self-cleavage stood at 0.01. The figure for C10G A11U U34C U38A is 0.01. C10G C23G U28A U32A U38A: the self-cleavage came to 0.01. On to C10A G22U G36C, for which the self-cleavage is 0.03. The figure for C10A G19C G22U is 0; for C10G A12G C31U it is 0.03; for C10A G27C G29U U43A it is 0.02.

On to C10A G36A G44A, for which the self-cleavage was 0.11. On to C10A G30C U38C, for which the self-cleavage was found to be 0.21. On to C10A G22A G30A, for which the self-cleavage worked out at 0.1.

For C10A G35C A41U, the self-cleavage was 0.01. As to C10A G27U C37A G40A, the self-cleavage is 0.01. On to C10A G36U C37U, for which the self-cleavage came out at 0.02. With C10A G27U U38G, the self-cleavage was 0.03. On to C10G A12U G19C G21C G29U, for which the self-cleavage was found to be 0. For the variant C10G G17A A41G, the self-cleavage worked out at 0.05. Consider C10A G22C C31U U32G, for which the self-cleavage was determined as 0.04. For C10G C13A A16G U28C, the self-cleavage was 0.01. C10A G19C U20C: the self-cleavage was found to be 0.02.

In the case of C10A U20G U28G, the self-cleavage amounted to 0.

As to C10A G19A G22C, the self-cleavage was found to be 0.02. Regarding C10G C15G G19C A24U G30C G36C U38G G40A, the self-cleavage worked out at 0.

Turning to C10A G21U G22C G40A, the self-cleavage amounted to 0.02. With C10A G22A C23U A26C G40U C42G, the self-cleavage amounted to 0.02. C10A U34G G35C C45A: the self-cleavage is 0.01. Turning to C10G A41C U43C G44U C45G, the self-cleavage is 0.01.

On to C10A U20G C31U G33A, for which the self-cleavage was found to be 0.01. On to C10G C13G G21A, for which the self-cleavage was determined as 0.06. As to C10A G21A G36U, the self-cleavage was 0.01. For C10A G21C C42A, the self-cleavage was 0.02. For the variant C10A G36C G44U, the self-cleavage is 0.03.

Take C10G C13U A41U C46A: the self-cleavage was 0.01. Consider C10A G29U U34G, for which the self-cleavage worked out at 0.02. On to C10G A12U A24C C42A, for which the self-cleavage was found to be 0.01. Turning to C10G A12U C13G U20A A24C, the self-cleavage amounted to 0.01. In the case of C10A G29U U43C, the self-cleavage turned out to be 0.02.

Take C10A G35A G44C: the self-cleavage came to 0.1. C10A G21U A26U: the self-cleavage was determined as 0.03. For the variant C10A U34G C37G A39G G44A, the self-cleavage came to 0.01. Turning to C10A G21U G22U G40U, the self-cleavage was 0.01. For C10A G19U G21U G30U G33U, the self-cleavage is 0. Take C10G G17A A25G U32A: the self-cleavage worked out at 0.02. For the variant C10A G29A C37A G44U C46G, the self-cleavage was 0. As to C10G A12G C15A A39C A41C, the self-cleavage stood at 0.01. With C10G C13G G21C U34C, the self-cleavage came out at 0.01.

With C10A G22C A26U U28C, the self-cleavage was 0.02. Under C10G C13A C23U C42G stands 0.02; under C10G G17A U32C, 0.03; under C10A G27A G40U, 0.15. Consider C10A U20A G21U G29C C45G, for which the self-cleavage came out at 0.02. As to C10A U34C G36U, the self-cleavage was found to be 0.

For C10G G17C G35A A39G C45A, the self-cleavage worked out at 0.

Consider C10G C23G U38A, for which the self-cleavage was 0.01. Regarding C10G C15G C45A, the self-cleavage came out at 0.03.

Regarding C10A G22C C31U U43A, the self-cleavage stood at 0.02. Under C10G A11G A14C C15U G33A C37G stands 0.01; under C10G C15A G22C A24G, 0.02; under C10G A16U C31U, 0. Turning to C10A G22U A26U G33A, the self-cleavage is 0. Take C10G A14C G29U: the self-cleavage was found to be 0.04.
